In PubChem BioAssay AID1476 (National Center for Advancing Translational Sciences (NCATS), 2009):
Out of some 200,000 compounds screened, about 4,500 (2.2%) were called active. The shares of active, inactive and inconclusive entries below differ from those in the screen. Calls come from the whole dose curve; as a rule, active = well fitted inhibition curve with a large enough effect; inconclusive = small, poorly fitted or top-dose-only effect, or effect the other way; inactive = flat fitted curve, though single readings scatter. Potencies beside an inconclusive call are fits to weak or partial responses and may not hold up.

target: Cruzipain (Trypanosoma cruzi) (UniProt P25779); assay: qHTS Assay for Promiscuous and Specific Inhibitors of Cruzain (without detergent); settings: purified cruzain, Z-FR-AMC fluorescence, no detergent; note: nearly all actives have a fitted effect of over 40% in size;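 for max response, negative = inhibition: plate controls were enzyme without inhibitor for no effect and buffer without enzyme for full effect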
Sequence of UniProt P25779 (P25779 whole entry, looked up): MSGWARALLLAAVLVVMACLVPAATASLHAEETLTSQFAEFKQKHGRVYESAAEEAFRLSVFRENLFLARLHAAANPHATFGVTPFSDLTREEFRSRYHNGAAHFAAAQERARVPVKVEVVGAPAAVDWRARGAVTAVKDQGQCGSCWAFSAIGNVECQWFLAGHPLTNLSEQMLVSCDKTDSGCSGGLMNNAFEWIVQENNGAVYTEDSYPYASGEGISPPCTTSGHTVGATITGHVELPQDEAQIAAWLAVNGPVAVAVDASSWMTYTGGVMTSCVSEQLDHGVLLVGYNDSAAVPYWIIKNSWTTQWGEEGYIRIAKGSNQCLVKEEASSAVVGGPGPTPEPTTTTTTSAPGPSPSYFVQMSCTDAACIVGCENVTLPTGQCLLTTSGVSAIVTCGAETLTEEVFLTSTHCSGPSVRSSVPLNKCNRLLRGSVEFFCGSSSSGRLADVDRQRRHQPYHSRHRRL
Outline: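 Purified cruzain at 1.5 nM, pre-incubated 15 min with compound at room temperature in 100 mM sodium acetate pH 5.5, 5 mM DTT, 0.00005% Triton X-100. Reaction started with 2 uM Z-FR-AMC; AMC fluorescence increase over 60 s gives rate.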
Potency is the fitted concentration of half-maximal effect; tags give direction and shape of the fitted curve.

| Compound | Potency | max response, negative = inhibition |
| --- | --- | --- |
| C=CCOc1cccc(C2/C(=C(/O)c3ccc(Cl)cc3)C(=O)C(=O)N2CCN2CCOCC2)c1 (centres undefined) | inconclusive: 39.8 µM [activator, single point] | – |
| Cc1ccc(C(=O)COC(=O)c2cc(-c3cccs3)nc3ccccc23)cc1 | inconclusive: 39.8 µM [inhibitor, single point] | – |
| CCn1c(SCC(=O)c2c[nH]c3ccccc23)nc2cc(S(=O)(=O)N3CCOCC3)ccc21 | inconclusive: 10 µM [inhibitor, partial curve, poor fit] | – |
| COc1ccc(C2Nc3ccc4ccccc4c3-c3c2c(=O)oc2ccccc32)cc1 (centres undefined) | active: 10 µM | – |
| CCOC(=O)CC(NC(=O)c1cc2c(=O)n3cccc(C)c3nc2s1)c1ccc(OCC)c(OC)c1 (centres undefined) | inconclusive: 7.94 µM [activator, single point] | – |
| CCOC(=O)c1sc(N(Cc2ccccc2)C(=O)CN2C(=O)CN(C)C2=O)nc1C | inconclusive: 39.8 µM [activator, single point] | – |
| COc1cnc(-c2ccccn2)nc1Sc1ccccc1Cl | – | inactive: 8.91% |
| Cn1c(=O)c2c(nc(CN3CCN(C(=O)c4ccco4)CC3)n2Cc2ccc(Cl)cc2)n(C)c1=O | inconclusive: 31.6 µM [activator, single point] | – |
| Cc1cc(C)n(-c2nc3c(c(=O)[nH]c(=O)n3C)n2CC(O)COc2ccc(Cl)cc2Cl)n1 (centres undefined) | inconclusive: 39.8 µM [activator, single point] | – |
| CCCCOc1cccc(C(=O)N(Cc2cccs2)C2CCS(=O)(=O)C2)c1 (centres undefined) | inconclusive: 39.8 µM [activator, single point] | – |
| Cc1ccccc1C(=O)Nc1cc2c(cc1N1CCCCC1)n(C)c(=O)n2C | inconclusive: 39.8 µM [activator, single point] | – |
| O=C(NC(=S)Nc1ccccn1)c1cc(-c2ccccc2)nc2ccccc12 | inconclusive: 39.8 µM [inhibitor, single point] | – |
| O=C(NCC1CCCO1)C(c1cccs1)N(C(=O)Cn1nnc(-c2cccs2)n1)C1CCCC1 (centres undefined) | inconclusive: 31.6 µM [activator, single point] | – |
| Cc1ccc2c(c1)C(c1ccc([N+](=O)[O-])cc1)=NNC(c1ccc(Br)cc1)=N2 | inconclusive: 31.6 µM [inhibitor, single point] | – |
| Cc1nnc(SCC(=O)N2CC(=O)Nc3ccccc32)n1-c1ccccc1 | – | inactive: -4.24% |
| Cc1ccc2nc(N3CCN(C=O)CC3)nc(-c3ccccc3)c2c1 | inconclusive: 39.8 µM [activator, single point] | – |
| N#CC(C(=O)Nc1ccccc1)=C1Nc2ccccc2N1 | – | inactive: -7.97% |
| CCCN(CCC)CCNC(=O)C(NS(=O)(=O)c1ccc2c(c1)CCC(=O)N2)c1ccccc1 (centres undefined) | inconclusive: 31.6 µM [inhibitor, single point] | – |
| Cc1ccc(C(C)(C)C)cc1S(=O)(=O)Nc1cccc(S(=O)(=O)NC2=NCCC2)c1 | inconclusive: 31.6 µM [activator, single point] | – |
| COc1ccc(/C=N/NC(=O)c2ccccc2Cl)cc1CSc1nc2ccccc2s1 | active: 15.8 µM | – |

| Compound | Potency | max response, negative = inhibition |
| --- | --- | --- |
| O=C(NCc1cccc(Cl)c1)c1cc2c(s1)-c1ccccc1SC2 | active: 25.1 µM | – |
| CCOc1ccc(NC(=O)COC(=O)c2ccc3c(c2)C(=O)N(CCc2ccccc2)C3=O)cc1 | inconclusive: 39.8 µM [inhibitor, single point] | – |
| Cc1[nH]n(-c2ccccc2)c(=O)c1N=Nc1ccccc1C(=O)N1CCOCC1 | inconclusive: 31.6 µM [activator, single point] | – |
| COc1ccc(-c2csc(NC(=O)c3cccc(S(=O)(=O)N4CCN(C)CC4)c3)n2)cc1 | – | inactive: -5.31% |
| Cc1c(C)c2cc3c(c(C)c2oc1=O)OCN(CCc1ccccc1)C3 | inconclusive: 6.31 µM [activator, single point] | – |
| Cc1nc2c(-c3ccc(F)cc3)c(C)nn2c(C)c1CCC(=O)NC(C)CCc1ccco1 (centres undefined) | inconclusive: 39.8 µM [activator, single point] | – |
| COc1ccc(N2CCN(C(=O)CN(c3ccccc3)S(=O)(=O)c3ccc(OC)cc3)CC2)cc1 | inconclusive: 31.6 µM [activator, single point] | – |
| C(=N\N(c1ccccc1)c1ccccc1)/c1ccc(N2CCOCC2)s1 | inconclusive: 20 µM [inhibitor, partial curve, poor fit] | – |
| Cc1ccc(NC(=O)CNc2ccc(OC(C)C)cc2)c(C)c1 | inconclusive: 25.1 µM [inhibitor, partial curve] | – |
| Cc1ccc(C(=O)N/N=C\c2cc3c(cc2Br)OCO3)s1 | inconclusive: 20 µM [inhibitor, single point] | – |
| CCCN1C(=O)C(O)(CC(=O)c2ccc(C(C)C)cc2)c2ccccc21 (centres undefined) | inconclusive: 15.8 µM [activator, partial curve] | – |
| Clc1ccc(OCc2cn3cccnc3n2)c2ncccc12 | inconclusive: 39.8 µM [activator, single point] | – |
| COc1ccc2c(c1)O[C@H](c1ccc3c(c1)OCO3)[C@@H](OC(=O)Nc1ccc(C)c(Br)c1)C2=O | inconclusive: 39.8 µM [inhibitor, single point] | – |
| Cc1nn2c(=O)cc(COC(=O)c3ccccc3NC(=O)c3cccs3)nc2s1 | – | inactive: -0.113% |
| Cc1ccc(N2C(=O)C(Cl)=C(N3CCOCC3)C2=O)cc1Cl | active: 7.94 µM | – |
| Cc1ccc(C2C3CSCC=C3C(C#N)=C(N)C2(C#N)C#N)cc1 (centres undefined) | inconclusive: 39.8 µM [activator, single point] | – |
| Cc1cc(C)cc(NS(=O)(=O)c2ccc3[nH]cc(C(=O)NCCc4ccccc4)c(=O)c3c2)c1 | inconclusive: 39.8 µM [inhibitor, single point] | – |
| O=S(=O)(c1ccc(Oc2ccc(S(=O)(=O)N3CCOCC3)cc2)cc1)N1CCOCC1 | inconclusive: 31.6 µM [activator, single point] | – |
| Cc1c(O)c(=O)c2ccccc2n1C | inconclusive: 39.8 µM [inhibitor, single point] | – |
